# Test results: paper PMC4336329 (PLoS ONE, 2015)
# Screen size: about 310,000 compounds; about 14,000 (4.5%) showed an effect of 50% or more. The effect is printed as a negative number. This is one part of the list.
# Molecular target: human ether-à-go-go-related gene (hERG) potassium channel (human, UniProt Q12809)
# Assay: primary screen, population patch clamp on CHO cells stably expressing hERG
# 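Note: peak tail current of the secondary pulse compared with the same well before compound.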
# human ether-à-go-go-related gene (hERG) potassium channel, sequence (Q12809 whole entry, looked up): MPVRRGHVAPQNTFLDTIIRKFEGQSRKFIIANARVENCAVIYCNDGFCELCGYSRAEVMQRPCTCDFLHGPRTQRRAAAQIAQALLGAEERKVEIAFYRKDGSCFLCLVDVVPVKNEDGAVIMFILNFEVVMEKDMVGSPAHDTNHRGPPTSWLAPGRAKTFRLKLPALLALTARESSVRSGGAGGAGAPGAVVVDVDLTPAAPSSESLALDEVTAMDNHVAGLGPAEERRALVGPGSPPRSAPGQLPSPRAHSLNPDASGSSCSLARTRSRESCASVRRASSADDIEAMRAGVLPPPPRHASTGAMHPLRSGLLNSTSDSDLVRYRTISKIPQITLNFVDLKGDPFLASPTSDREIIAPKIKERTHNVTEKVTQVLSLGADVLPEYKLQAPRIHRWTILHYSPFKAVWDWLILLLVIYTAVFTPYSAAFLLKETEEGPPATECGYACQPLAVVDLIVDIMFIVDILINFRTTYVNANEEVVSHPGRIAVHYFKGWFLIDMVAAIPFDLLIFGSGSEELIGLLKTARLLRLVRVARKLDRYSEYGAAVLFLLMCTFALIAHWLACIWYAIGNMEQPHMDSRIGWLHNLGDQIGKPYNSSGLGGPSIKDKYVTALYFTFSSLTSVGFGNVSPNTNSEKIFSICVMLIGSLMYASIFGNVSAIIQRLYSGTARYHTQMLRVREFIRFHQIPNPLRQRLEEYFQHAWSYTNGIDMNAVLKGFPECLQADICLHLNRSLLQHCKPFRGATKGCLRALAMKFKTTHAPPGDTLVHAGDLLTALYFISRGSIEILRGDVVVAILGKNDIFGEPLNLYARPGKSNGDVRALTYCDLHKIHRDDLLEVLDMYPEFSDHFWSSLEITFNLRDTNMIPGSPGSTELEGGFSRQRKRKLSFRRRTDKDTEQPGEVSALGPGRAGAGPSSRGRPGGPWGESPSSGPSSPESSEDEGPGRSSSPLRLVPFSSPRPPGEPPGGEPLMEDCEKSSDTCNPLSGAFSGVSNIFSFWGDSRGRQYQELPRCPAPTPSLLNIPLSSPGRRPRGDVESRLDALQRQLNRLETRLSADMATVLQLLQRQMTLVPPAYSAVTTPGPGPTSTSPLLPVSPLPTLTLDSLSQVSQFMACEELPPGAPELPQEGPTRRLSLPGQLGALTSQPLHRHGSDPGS
row,SMILES,"hERG current change (%, negative = inhibition) at 10uM [%]"
1,CC(C)C(OC(=O)Cn1nnc2ccccc21)C(=O)NC1CCCC1 (stereo not drawn),4.65
2,Oc1cccc(C(=S)N2CCCCC2)c1,6.67
3,Cc1ccc(SCCC(=O)Nc2ccccc2C(=O)N2CCOCC2)cc1,-6.5
4,CC(C)(C)c1ccc(C(=O)NC(=S)N2CCCC2)cc1,19.4
5,Cc1ccc(C(=O)O)cc1NC(=S)NC(=O)c1ccc(-c2ccc(Cl)cc2)o1,5.42
6,O=C(CSc1nc2[nH]c(=O)cc(O)c2s1)Nc1ccc(Cl)c(C(F)(F)F)c1,2.18
7,Cc1cc(C)c(S(=O)(=O)Nc2ccc(O)c(Sc3ncn[nH]3)c2)cc1C,0.694
8,COc1cc(CN2CCN(Cc3ccc(C(F)(F)F)cc3)CC2)cc(OC)c1OC.O=C(O)C(=O)O,-54.1
9,Cc1nc2cc(Nc3ccncc3)ccc2s1,-30.1
10,CC12CCC(=O)N1C(C(=O)NNC(=O)c1ccccc1Cl)CS2 (stereo not drawn),6.4
11,Cc1onc(-c2c(F)cccc2Cl)c1C(=O)ONC(=O)c1ccco1,-9.99
12,Cc1ccc(C(=O)Nc2cccc(NC(=O)c3cccnc3)c2)cc1,6.03
13,Cc1ccc(NS(=O)(=O)c2ccc(-c3ccc(=O)[nH]n3)o2)cc1Cl,16.1
14,O=c1[nH]c2ccccc2n1Cc1ccccc1,0.674
15,CC1=C(C(=O)Nc2ccc(Cl)cc2C(=O)N2CCC(C(N)=O)CC2)SCCO1,12.1
16,Cc1ccc(N2C(=O)C(CN(C)C)C2c2ccccc2)cc1 (stereo not drawn),-33.1
17,COC(=O)c1ccc(NN=Nc2ccc(C)cc2)cc1,1.46
18,Cc1cnc(NC(=O)C2=C([O-])c3ccccc3S(=O)(=O)N2C)s1.O.[Na+],11
19,C/C(=N/NC(=O)CN1CCN(Cc2ccccc2Cl)CC1)c1ccco1,-25.4
20,COC(=O)c1ccc(CNC(=O)CSC(C)C(=O)Nc2cc(C)on2)cc1 (stereo not drawn),-6.33
21,N/C(=N\OC(=O)c1ccco1)c1cccc(Br)c1,-7.94
22,O=C(N/N=C1\CC(c2ccccc2)Oc2ccccc21)c1cccnc1 (stereo not drawn),1.76
23,O=C(O)c1ccc(/C=N/NC(=O)c2ccc(NS(=O)(=O)c3cccs3)cc2)cc1,5.79

row,SMILES,"hERG current change (%, negative = inhibition) at 10uM [%]"
1,O=C(c1cccc(Cl)c1)N1CCN(c2ccccn2)CC1,-12.9
2,CCCC(=O)Nc1c2c(nc3ccccc13)N(c1ccccc1)CC2,-1.55
3,COC(=O)c1cccc2nc3c(C(C)O)cccc3nc12 (stereo not drawn),4.33
4,CCOCCCNC(=O)c1cccc(NC(=O)C2=C(C)OCCS2)c1,8.5
5,COC(C/C=C\[C@@H](O)[C@@H](C)OCc1ccccc1)OC,-3.91
6,CCc1cc2c(=O)n(CC(C)C)cnc2s1,2.98
7,Cc1cc(C(=O)NN=C2CCCCCC2)c(C)o1,-2.82
8,N#CCc1nc2ccccc2c(=O)[nH]1,-5.99
9,O=c1[nH]c(=O)n(CCC2=CCCCC2)c(O)c1C=NCCN1CCNCC1,-11.7
10,COc1ccc(/C=C(\C#N)C(=O)OCC(=O)NCc2ccco2)cc1,12.6
11,Cc1cccc(OCC(=O)Nc2cc(C)ccc2O)c1,12.4
12,C(=N\N(Cc1ccccc1)c1ccccc1)/c1ccco1,-11.5
13,CCOc1cccc2cc(C(=O)Oc3ccc(OC)cc3)c(=O)oc12,5.25
14,COc1cc(OC)c(-c2c3cc(O)c(=O)cc-3oc3cc(O)c(O)cc23)cc1OC,27.6
15,CCOC(=O)/C(N)=C/c1ncc(C(F)(F)F)cc1Cl,-2.34
16,CC1(C)CC(=O)N(CC(=O)NC2CCCC2)c2ccccc2S1(=O)=O,11.7
17,CSCC[C@H](NC(=O)[C@H](Cc1ccccc1)n1c(=O)[nH]c2ccccc2c1=O)C(=O)N1CCC(C(=O)O)CC1,4.98
18,CC(Oc1ccc2c3c(c(=O)oc2c1)CCCC3)C(=O)NCCCn1ccnc1 (stereo not drawn),-2.45
19,CC(Cc1ccsc1)NC(=O)CCc1nnc(CCc2ccccc2)o1 (stereo not drawn),10.6
20,CC(=NCCN(C)C)c1c(O)n(Cc2ccccc2)c(=O)[nH]c1=O,-1.7
21,CCCn1c(SCC(=O)NC(=O)NC(C)(C)C)n[nH]c1=O,22.7
22,CC(C)CCN1CCN(Cc2cn[nH]c2C2CCCCC2)CC1CCO (stereo not drawn),1.14
23,Cc1cccc(OC(=O)n2c(=S)oc3cc(Cl)ccc32)c1,18.3

row,SMILES,"hERG current change (%, negative = inhibition) at 10uM [%]"
1,CN(C)c1ccc(/C=N/NC(=O)C(O)c2ccc(Br)cc2)cc1 (stereo not drawn),11.9
2,N#Cc1ccc(CO/N=C/c2ccccc2)cc1,-1.65
3,O=C(NCC(=O)N1CCCC(C(F)(F)F)C1)c1ccc(Br)o1 (stereo not drawn),-13.3
4,Cc1ccc2cc(C#N)c(N3CCN(C(=O)c4cccs4)CC3)nc2c1,-34.2
5,COc1ccc(F)c(CN2CCC(CO)(Cc3cccc(C(F)(F)F)c3)CC2)c1,-58.4
6,Cc1ccc(S(=O)(=O)N2CCN(C(=O)COC(=O)C3CCC3)CC2)c(C)c1,-30.5
7,Cc1onc(-c2ccccc2)c1C(=O)NCc1cccs1,-6.41
8,COc1ccc(NC(=O)c2cc3ccccc3oc2=O)c(OC)c1,29.2
9,OCC1(Cc2cccc(Cl)c2)CCCN(Cc2cnn(-c3ccccc3)c2)C1 (stereo not drawn),-54.7
10,COc1ccccc1OCCCn1cc(C(C)=O)c2ccccc21,-10.5
11,C/C(=N\NC(=O)C1COc2ccccc2O1)c1cc2ccccc2o1 (stereo not drawn),19.7
12,Cc1cc(C(=O)N/N=C/c2cccs2)n[nH]1,18.9
13,COc1ccc(N2C3=C(CC4=C2CCCC4=O)C(=O)CCC3)cc1,-21.3
14,COc1ccccc1NC(=O)Nc1ccc(Cl)c(S(=O)(=O)Nc2ccccc2OC)c1,11.2
15,Cc1ccc2oc(C(=O)Nc3nnc(CC(C)C)s3)c(C)c2c1,11.5
16,O=C(CNC(=O)c1ccco1)OCC(=O)c1ccc2c(c1)CCCC2,0.0827
17,Cc1cccc(S(=O)(=O)c2c(N)n(/N=C/c3ccccc3)c3nc4ccccc4nc23)c1,1.87
18,O=C(CCC(=O)N1CC2C[C@@H](C1)Cn1c2cccc1=O)NCCc1ccccc1F,0.0359
19,Cc1nc2ccccc2c(=O)n1Cc1ccc([N+](=O)[O-])cc1,-74.4
20,Cc1ccc(NC(=O)CSc2nc3ccccc3c(=O)n2CCCC(=O)NCC2CCCO2)cc1 (stereo not drawn),-0.641
21,CCn1cc(C(=O)O)c(=O)c2cc(S(=O)(=O)N3CCCCCC3)ccc21,10.7
22,CCOCCCn1c(=S)[nH]c2cc(C(=O)N3CCN(C)CC3)ccc2c1=O,-12.1
23,O=C(/C=C/c1ccco1)NC(=S)NNC(=O)c1ccco1,23.8

row,SMILES,"hERG current change (%, negative = inhibition) at 10uM [%]"
1,COc1ccc([C@@H]2[C@@H]3C(=O)N(C(C)(C)C)C(=O)[C@@H]3[C@]3(CC(C)C)C(=O)N(c4cccc(F)c4)C(=O)N23)cc1,22.6
2,COc1cc(C(C)=O)ccc1OCC(=O)N(CCC1=CCCCC1)c1c(N)n(Cc2ccccc2)c(=O)[nH]c1=O,9.5
3,COC(=O)c1sccc1NC(=O)Nc1ccc(C)cc1,15.4
4,Cc1ccccc1N1CCN(S(=O)(=O)c2nnc(NC(=O)c3ccco3)s2)CC1,3.69
5,COn1c(-c2ccc(Cl)cc2Cl)nc2ncccc21,-1.12
6,O=C(NCCCn1ccnc1)C(=O)Nc1ccccc1,11.8
7,N#Cc1cccc(NC(=O)Cn2cnc(S(=O)(=O)N3CCCCC3)c2)c1,9.25
8,Cc1cccc(NC(=O)NN2CCN(C)CC2)c1C,28.4
9,Cc1ccc(NC(=O)CN(C)C(=O)Cc2c(Cl)cccc2Cl)cc1,5.81
10,Cc1ccc(C(=O)OCC(=O)Nc2ccc3[nH]c(=O)[nH]c3c2)cc1S(=O)(=O)N1CCOCC1,4.19
11,CN(C)CC(C(=O)c1ccccc1)c1ccccc1.Cl (stereo not drawn),-13.2
12,O=C(NC(=S)NC1CCCCCC1)c1cncc(Br)c1,16.8
13,CCn1c(SCC(=O)c2[nH]c(C)c(C(C)=O)c2C)nnc1-c1cccs1,-24.8
14,O=C(CSc1cccs1)Nc1ccc(Cl)cc1,4.57
15,CC(=O)NCCc1ccc(S(=O)(=O)N(C)C2CCS(=O)(=O)C2)cc1 (stereo not drawn),6.71
16,Cc1ccc(C)n1-c1sc2c(c1C#N)CCCC2,0.63
17,Cc1nn(C)c(Oc2cccc(Cl)c2)c1C=O,8.1
18,CN(C)CCNC(=O)c1sc2cccc(F)c2c1Cl,-19.9
19,CCn1c(=O)cc(NC2=NCC(C)CN2c2cccc(Cl)c2)n(C)c1=O (stereo not drawn),-16.9
20,Cc1ccc(NC(=O)CN2C(=O)N/C(=C/c3cccn3-c3ccc(C(=O)O)cc3)C2=O)cc1,24.8
21,CC(=O)Nc1cccc(N=NN2CCCCC2)c1,7.1
